Source: the supplement of paper PMC10126150
Sequences with one replicate were seen in a single cluster, so their values are uncertain.

Each sequence was assayed on ATP (assay: switch fluorescence ratio, 500 uM ATP over buffer (Cy3 cluster intensity, sum of 5 cycles each) (fold (ratio)); higher = stronger signal-on switching upon ATP binding; sequences stand for … in TCGTCGGCAGCGTCAGATGTGTATAAGAGACAGTTTTTTTTTTTTTTTTTTTTTTTTT…TC). Conditions: aptamer strand: ATP DNA aptamer (quencher-CACCTGGGGGAGTATTGCGGAGGAAGG + anchor), 100 nM annealed; ATP concentration: 500 uM; one replicate.
In short: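 The quencher-labelled ATP aptamer, at 100 nM, was annealed to Cy3-labelled switching-strand clusters on a modified Illumina MiSeq flow-cell. The clusters were imaged in selection buffer, then after 15 min with 500 uM ATP at 22 °C, and this buffer/ATP cycle ran five times with NaOH stripping and re-annealing between runs. Per-cluster fluorescence ratios, summed target-cycle over summed buffer-cycle Cy3 intensity, were averaged per switch-domain sequence. Clusters outside 100-1000 RFU were excluded.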
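Also: ATP exposure 15 min at 22 °C before imaging.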

**Q.** Which switch fluorescence ratio does the source give for CTCGGGATGA here?
**A.** The switch fluorescence ratio was 1.07.

**Q.** With CTCGGGGTAT as the sequence, how does the switch fluorescence ratio read?
**A.** Its switch fluorescence ratio is 1.

**Q.** Which switch fluorescence ratio does the source give for CTCGGTACGC here?
**A.** Its switch fluorescence ratio is 0.99.

**Q.** Which switch fluorescence ratio does the source give for CTCGGTGTCG here?
**A.** The switch fluorescence ratio was 1.02.

**Q.** Which switch fluorescence ratio does the source give for CTCGTAAAAA here?
**A.** The switch fluorescence ratio was 1.19.

**Q.** With CTCGTAGCTT as the sequence, how does the switch fluorescence ratio read?
**A.** The switch fluorescence ratio was 1.33.

**Q.** For CTCGTCAGTT, which switch fluorescence ratio is on record?
**A.** The switch fluorescence ratio was 0.99.

**Q.** CTCGTCGGTC was tested. Which switch fluorescence ratio did it give?
**A.** The switch fluorescence ratio was 1.05.

**Q.** With CTCGTCTATT as the sequence, how does the switch fluorescence ratio read?
**A.** Its switch fluorescence ratio is 1.01.

**Q.** With CTCGTGGAAG as the sequence, how does the switch fluorescence ratio read?
**A.** The switch fluorescence ratio was 1.06.

**Q.** For CTCGTTCGTA, which switch fluorescence ratio is on record?
**A.** The switch fluorescence ratio was 0.974.

**Q.** How did the switch fluorescence ratio turn out when CTCGTTTACT was run?
**A.** Its switch fluorescence ratio is 1.07.

**Q.** CTCGTTTCCC was tested. Which switch fluorescence ratio did it give?
**A.** The switch fluorescence ratio was 1.04.

**Q.** CTCGTTTGAG was tested. Which switch fluorescence ratio did it give?
**A.** Its switch fluorescence ratio is 0.971.

**Q.** How did the switch fluorescence ratio turn out when CTCGTTTTAT was run?
**A.** The switch fluorescence ratio was 0.991.

**Q.** How did the switch fluorescence ratio turn out when CTCGTTTTT was run?
**A.** The switch fluorescence ratio was 0.974.

**Q.** For CTCTACATGG, which switch fluorescence ratio is on record?
**A.** The switch fluorescence ratio was 1.09.

**Q.** CTCTACATTA was tested. Which switch fluorescence ratio did it give?
**A.** The switch fluorescence ratio was 1.07.

**Q.** Which switch fluorescence ratio does the source give for CTCTATTACT here?
**A.** Its switch fluorescence ratio is 1.09.

**Q.** With CTCTCATATA as the sequence, how does the switch fluorescence ratio read?
**A.** Its switch fluorescence ratio is 1.04.

**Q.** CTCTCATTTG was tested. Which switch fluorescence ratio did it give?
**A.** Its switch fluorescence ratio is 0.972.

**Q.** CTCTCCTCTA was tested. Which switch fluorescence ratio did it give?
**A.** Its switch fluorescence ratio is 1.22.

**Q.** How did the switch fluorescence ratio turn out when CTCTCTGTCA was run?
**A.** Its switch fluorescence ratio is 1.15.

**Q.** With CTCTGGAGAC as the sequence, how does the switch fluorescence ratio read?
**A.** Its switch fluorescence ratio is 2.52.

**Q.** With CTCTGGCACG as the sequence, how does the switch fluorescence ratio read?
**A.** Its switch fluorescence ratio is 1.1.

**Q.** CTCTGTGTCA was tested. Which switch fluorescence ratio did it give?
**A.** The switch fluorescence ratio was 1.01.

**Q.** For CTCTGTTGGG, which switch fluorescence ratio is on record?
**A.** The switch fluorescence ratio was 1.01.

**Q.** Which switch fluorescence ratio does the source give for CTCTTAAAAA here?
**A.** The switch fluorescence ratio was 0.949.

**Q.** CTCTTATCGT was tested. Which switch fluorescence ratio did it give?
**A.** Its switch fluorescence ratio is 0.996.

**Q.** For CTCTTGA, which switch fluorescence ratio is on record?
**A.** Its switch fluorescence ratio is 0.944.

**Q.** How did the switch fluorescence ratio turn out when CTCTTTTAAT was run?
**A.** The switch fluorescence ratio was 0.971.

**Q.** For CTCTTTTGAA, which switch fluorescence ratio is on record?
**A.** Its switch fluorescence ratio is 0.914.

**Q.** For CTGAAAGTTC, which switch fluorescence ratio is on record?
**A.** Its switch fluorescence ratio is 0.989.

**Q.** With CTGAACAAGG as the sequence, how does the switch fluorescence ratio read?
**A.** Its switch fluorescence ratio is 1.02.

**Q.** Which switch fluorescence ratio does the source give for CTGAACTTGA here?
**A.** Its switch fluorescence ratio is 1.01.

**Q.** CTGAAGCTTT was tested. Which switch fluorescence ratio did it give?
**A.** The switch fluorescence ratio was 1.85.

**Q.** With CTGACACAGC as the sequence, how does the switch fluorescence ratio read?
**A.** The switch fluorescence ratio was 2.09.

**Q.** With CTGACCGACT as the sequence, how does the switch fluorescence ratio read?
**A.** Its switch fluorescence ratio is 2.13.

**Q.** Which switch fluorescence ratio does the source give for CTGACCTACA here?
**A.** The switch fluorescence ratio was 1.31.

**Q.** How did the switch fluorescence ratio turn out when CTGACGCCGG was run?
**A.** Its switch fluorescence ratio is 1.22.

**Q.** Which switch fluorescence ratio does the source give for CTGACGGGGT here?
**A.** Its switch fluorescence ratio is 1.09.

**Q.** With CTGACTATCT as the sequence, how does the switch fluorescence ratio read?
**A.** Its switch fluorescence ratio is 0.996.

**Q.** How did the switch fluorescence ratio turn out when CTGACTCT was run?
**A.** Its switch fluorescence ratio is 1.02.

**Q.** How did the switch fluorescence ratio turn out when CTGACTTC was run?
**A.** Its switch fluorescence ratio is 1.1.

**Q.** CTGAGACCTC was tested. Which switch fluorescence ratio did it give?
**A.** Its switch fluorescence ratio is 1.01.

**Q.** Which switch fluorescence ratio does the source give for CTGAGGCGAG here?
**A.** Its switch fluorescence ratio is 1.12.

**Q.** With CTGAGTAATG as the sequence, how does the switch fluorescence ratio read?
**A.** The switch fluorescence ratio was 1.14.

**Q.** Which switch fluorescence ratio does the source give for CTGAGTAATT here?
**A.** The switch fluorescence ratio was 1.08.

**Q.** CTGATAAAGA was tested. Which switch fluorescence ratio did it give?
**A.** The switch fluorescence ratio was 1.01.

**Q.** With CTGATAGGCC as the sequence, how does the switch fluorescence ratio read?
**A.** Its switch fluorescence ratio is 1.01.

**Q.** CTGATAGTTC was tested. Which switch fluorescence ratio did it give?
**A.** The switch fluorescence ratio was 0.961.

**Q.** CTGATCGATG was tested. Which switch fluorescence ratio did it give?
**A.** Its switch fluorescence ratio is 1.06.

**Q.** How did the switch fluorescence ratio turn out when CTGATCGGTT was run?
**A.** The switch fluorescence ratio was 1.01.

**Q.** How did the switch fluorescence ratio turn out when CTGATGCCTT was run?
**A.** The switch fluorescence ratio was 0.99.

**Q.** CTGATGTTTG was tested. Which switch fluorescence ratio did it give?
**A.** Its switch fluorescence ratio is 1.05.

**Q.** With CTGATTGAAT as the sequence, how does the switch fluorescence ratio read?
**A.** Its switch fluorescence ratio is 1.

**Q.** For CTGATTGCCT, which switch fluorescence ratio is on record?
**A.** The switch fluorescence ratio was 0.999.

**Q.** How did the switch fluorescence ratio turn out when CTGATTGCGT was run?
**A.** The switch fluorescence ratio was 0.993.

**Q.** Which switch fluorescence ratio does the source give for CTGCAAAGTC here?
**A.** The switch fluorescence ratio was 2.27.

**Q.** How did the switch fluorescence ratio turn out when CTGCAACATA was run?
**A.** The switch fluorescence ratio was 1.29.

**Q.** CTGCACGGTC was tested. Which switch fluorescence ratio did it give?
**A.** Its switch fluorescence ratio is 1.06.

**Q.** Which switch fluorescence ratio does the source give for CTGCAGCAGT here?
**A.** Its switch fluorescence ratio is 4.24.

**Q.** With CTGCAGGGGC as the sequence, how does the switch fluorescence ratio read?
**A.** Its switch fluorescence ratio is 1.23.

**Q.** With CTGCAGGGGT as the sequence, how does the switch fluorescence ratio read?
**A.** Its switch fluorescence ratio is 1.13.

**Q.** With CTGCATCTGT as the sequence, how does the switch fluorescence ratio read?
**A.** The switch fluorescence ratio was 1.03.

**Q.** How did the switch fluorescence ratio turn out when CTGCCACGAG was run?
**A.** The switch fluorescence ratio was 1.07.

**Q.** How did the switch fluorescence ratio turn out when CTGCCCAACG was run?
**A.** Its switch fluorescence ratio is 1.04.

**Q.** Which switch fluorescence ratio does the source give for CTGCCCCTGC here?
**A.** The switch fluorescence ratio was 1.01.

**Q.** Which switch fluorescence ratio does the source give for CTGCCCGACC here?
**A.** The switch fluorescence ratio was 1.39.

**Q.** For CTGCCGGAGG, which switch fluorescence ratio is on record?
**A.** The switch fluorescence ratio was 1.08.

**Q.** CTGCCGTCGC was tested. Which switch fluorescence ratio did it give?
**A.** Its switch fluorescence ratio is 1.02.

**Q.** Which switch fluorescence ratio does the source give for CTGCCTCTGC here?
**A.** The switch fluorescence ratio was 1.79.

**Q.** Which switch fluorescence ratio does the source give for CTGCCTGTTA here?
**A.** Its switch fluorescence ratio is 0.973.

**Q.** How did the switch fluorescence ratio turn out when CTGCGCACCT was run?
**A.** The switch fluorescence ratio was 1.64.

**Q.** With CTGCGCGGCT as the sequence, how does the switch fluorescence ratio read?
**A.** The switch fluorescence ratio was 1.25.

**Q.** Which switch fluorescence ratio does the source give for CTGCGGACTG here?
**A.** Its switch fluorescence ratio is 1.04.

**Q.** CTGCGGGGCG was tested. Which switch fluorescence ratio did it give?
**A.** Its switch fluorescence ratio is 1.01.

**Q.** For CTGCGTTAGC, which switch fluorescence ratio is on record?
**A.** The switch fluorescence ratio was 1.01.

**Q.** With CTGCTCACTT as the sequence, how does the switch fluorescence ratio read?
**A.** The switch fluorescence ratio was 0.979.

**Q.** Which switch fluorescence ratio does the source give for CTGCTGCGAT here?
**A.** Its switch fluorescence ratio is 1.6.

**Q.** With CTGGAACATC as the sequence, how does the switch fluorescence ratio read?
**A.** Its switch fluorescence ratio is 1.06.

**Q.** Which switch fluorescence ratio does the source give for CTGGAAGGGC here?
**A.** The switch fluorescence ratio was 1.06.

**Q.** CTGGAATAT was tested. Which switch fluorescence ratio did it give?
**A.** The switch fluorescence ratio was 1.11.

**Q.** CTGGACACCT was tested. Which switch fluorescence ratio did it give?
**A.** The switch fluorescence ratio was 1.08.

**Q.** CTGGACAGTC was tested. Which switch fluorescence ratio did it give?
**A.** Its switch fluorescence ratio is 1.05.

**Q.** CTGGACATAG was tested. Which switch fluorescence ratio did it give?
**A.** The switch fluorescence ratio was 1.03.

**Q.** With CTGGACGATA as the sequence, how does the switch fluorescence ratio read?
**A.** The switch fluorescence ratio was 1.1.

**Q.** Which switch fluorescence ratio does the source give for CTGGACGGCC here?
**A.** Its switch fluorescence ratio is 0.972.

**Q.** How did the switch fluorescence ratio turn out when CTGGAGGGCT was run?
**A.** Its switch fluorescence ratio is 0.995.

**Q.** For CTGGATTAGA, which switch fluorescence ratio is on record?
**A.** The switch fluorescence ratio was 1.05.

**Q.** Which switch fluorescence ratio does the source give for CTGGCAATTT here?
**A.** The switch fluorescence ratio was 1.31.

**Q.** With CTGGCATCGA as the sequence, how does the switch fluorescence ratio read?
**A.** The switch fluorescence ratio was 1.04.

**Q.** How did the switch fluorescence ratio turn out when CTGGCCATAT was run?
**A.** Its switch fluorescence ratio is 1.18.

**Q.** Which switch fluorescence ratio does the source give for CTGGCCGAGT here?
**A.** The switch fluorescence ratio was 1.02.

**Q.** For CTGGCTTACT, which switch fluorescence ratio is on record?
**A.** The switch fluorescence ratio was 1.13.

**Q.** How did the switch fluorescence ratio turn out when CTGGGAAAAC was run?
**A.** The switch fluorescence ratio was 1.02.

**Q.** With CTGGGACATA as the sequence, how does the switch fluorescence ratio read?
**A.** Its switch fluorescence ratio is 0.996.

**Q.** With CTGGGACTTT as the sequence, how does the switch fluorescence ratio read?
**A.** The switch fluorescence ratio was 0.993.

**Q.** How did the switch fluorescence ratio turn out when CTGGGATCG was run?
**A.** The switch fluorescence ratio was 1.

**Q.** How did the switch fluorescence ratio turn out when CTGGGCCAGG was run?
**A.** The switch fluorescence ratio was 1.05.
